Reference: the CheMixHub viscosity set
± gives the uncertainty stated by the source. For part of its entries the source gives two or more results. They are shown here; other results are not. There may be further records. Values that stand side by side are repeats (runs, samples, wells, individuals or studies). Brackets tell where a record comes from. Letters count within one entry. Marks such as (2×) count equal records among those shown.

Key:
[1] = xn = mol fraction of the nth substance listed; settings: 100 kPa, x2 = 0.5

SMILES	viscosity (298.15 K, 101 kPa)	viscosity (303.15 K, 101 kPa)	viscosity (308.15 K, 101 kPa)	viscosity (313.15 K, 101 kPa)	other results
C=CC(=O)OC	0.4602 ± 0.019 mPa·s [study A] and 0.449 ± 0.007 mPa·s [study B] and 0.465 ± 0.01 mPa·s [study C] and 0.46 ± 0.07 mPa·s [study D] and 0.461 ± 0.008 mPa·s [study E]	0.4197 ± 0.017 mPa·s [study A] and 0.428 ± 0.009 mPa·s [study B] and 0.433 ± 0.07 mPa·s [study C] and 0.42 ± 0.007 mPa·s [study D]	0.3856 ± 0.016 mPa·s [study A] and 0.39 ± 0.007 mPa·s [study B] and 0.392 ± 0.008 mPa·s [study C] and 0.414 ± 0.07 mPa·s [study D] and 0.384 ± 0.007 mPa·s [study E]	0.355 ± 0.015 mPa·s [study A] and 0.36 ± 0.01 mPa·s [study B] and 0.395 ± 0.07 mPa·s [study C] and 0.357 ± 0.007 mPa·s [study D]	
O=C(O)C(=O)O + C[N+](C)(C)CCO.[Cl-]					viscosity ([1]; 303.15 K): 5363 ± 380 mPa·s [study A] and 398.6 ± 19 mPa·s [study B]; viscosity ([1]; 313.15 K): 2142 ± 130 mPa·s [study A] and 223.3 ± 9.9 mPa·s [study B]; viscosity ([1]; 323.15 K): 971.1 ± 53 mPa·s [study A] and 136.7 ± 5.8 mPa·s [study B]
C=CC(=O)OCCCC	0.8385 ± 0.034 mPa·s [study A] and 0.787 ± 0.008 mPa·s [study B] and 0.806 ± 0.07 mPa·s [study C] and 0.838 ± 0.011 mPa·s [study D]		0.7306 ± 0.03 mPa·s [study A] and 0.684 ± 0.008 mPa·s [study B] and 0.703 ± 0.07 mPa·s [study C] and 0.73 ± 0.01 mPa·s [study D]		
Cc1ccccc1O		6.323 ± 0.17 mPa·s [study A] and 6.125 ± 0.075 mPa·s [study B] and 6.043 ± 0.16 mPa·s [study C] and 7.479 ± 0.053 mPa·s [study D]			
CCCCCC	0.3046 ± 0.04 mPa·s, 0.3023 ± 0.003 mPa·s, 0.327 ± 0.026 mPa·s, 0.292 ± 0.003 mPa·s, 0.2919 ± 0.012 mPa·s, 0.34 ± 0.04 mPa·s, 0.2958 ± 0.008 mPa·s, 0.2958 ± 0.004 mPa·s, 0.299 ± 0.0038 mPa·s, 0.299 ± 0.003 mPa·s [several studies]			0.26 ± 0.003 mPa·s [study A] and 0.2391 ± 0.0046 mPa·s [study B] and 0.257 ± 0.005 mPa·s [study C] and 0.262 ± 0.003 mPa·s [study D]	viscosity (298.15 K, 101.33 kPa): 0.2979 ± 0.0035 mPa·s, 0.3096 ± 0.0033 mPa·s, 0.3092 ± 0.0033 mPa·s, 0.298 ± 0.003 mPa·s, 0.298 ± 0.01 mPa·s (2×), 0.311 ± 0.01 mPa·s, 0.2987 ± 0.0097 mPa·s, 0.2987 ± 0.005 mPa·s, 0.302 ± 0.003 mPa·s, 0.318 ± 0.004 mPa·s [several studies]; viscosity (303.15 K, 101.33 kPa): 0.278 ± 0.007 mPa·s [study A] and 0.2977 ± 0.0034 mPa·s [study B] and 0.2759 ± 0.0033 mPa·s [study C] and 0.285 ± 0.009 mPa·s [study D] and 0.296 ± 0.01 mPa·s [study E] and 0.285 ± 0.01 mPa·s [study F] and 0.287 ± 0.003 mPa·s [study G] and 0.303 ± 0.004 mPa·s [study H]; viscosity (308.15 K, 101.33 kPa): 0.2709 ± 0.0032 mPa·s [study A] and 0.284 ± 0.009 mPa·s [study B] and 0.271 ± 0.003 mPa·s [study C] and 0.273 ± 0.01 mPa·s [study D] and 0.274 ± 0.002 mPa·s [study E] and 0.288 ± 0.004 mPa·s [study F]
CC(C)CO	3.556 ± 0.048 mPa·s [study A] and 3.295 ± 0.03 mPa·s [study B] and 3.38 mPa·s [study C] and 3.291 ± 0.02 mPa·s [study D] and 3.36 ± 0.027 mPa·s [study E] and 3.38 ± 0.042 mPa·s [study F]	2.849 ± 0.027 mPa·s [study A] and 2.942 ± 0.031 mPa·s [study B] and 2.89 mPa·s [study C] and 2.635 ± 0.032 mPa·s [study D] and 2.845 ± 0.02 mPa·s [study E]	2.455 ± 0.025 mPa·s [study A] and 2.453 ± 0.023 mPa·s [study B] and 2.52 ± 0.027 mPa·s [study C] and 2.47 mPa·s [study D]		viscosity (308.15 K, 101.3 kPa): 2.316 ± 0.034 mPa·s [study A] and 2.317 ± 0.029 mPa·s [study B] and 2.426 ± 0.055 mPa·s [study C] and 2.426 ± 0.015 mPa·s [study D]
